B1: CPEB3 Ribozyme (parent)
chain: UAACAGGGGGCCACAGCAGAAGCGUUCACGUCGCAGCCCCUGUCAGAUUCUGGUGAAUCUGCGAAUUCUGCUGUAUAUCUC

Read counts are not given, so values of variants with three or more changes are uncertain.

Consider 167 variants from the RNAGym collection of RNA variant scans (doi:10.1093/nar/gkz1192).

The variants in this data set derive from B1. The experiment in a line: self-cleavage, relative activity (ratio to wild type); higher = more cleavage; in vitro, sequencing. The gist of the method:
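Relative activity was defined as the cleaved/total read fraction for a variant divided by the same fraction for the unmutated ribozyme. CPEB3 self-cleaving ribozyme libraries were made by rounds of error-prone PCR, barcoded, and transcribed in vitro with T7 RNA polymerase for 5 hours at 37°C, and cleavage ran through transcription plus a 15 min DNase I step before EDTA. Illumina sequencing of template-switched reverse transcripts gave the reads, and DNA sequencing mapped the barcodes. Averages come from three batches, using variants with at least 5 reads.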
As for G8A G33C A57G, the self-cleavage came out at 0.07. On to G8C U43G U51C, for which the self-cleavage was found to be 0.32. Consider G8U A15G G46A A56G U72A, for which the self-cleavage was determined as 0.32. The value for G8C A15U U58C was 0.17; that for G8A U25C U48C U66C was 0.06; that for G8A U31A A47C U60A U69A U80C was 0.06. As for G8A U31G U43C A45C, the self-cleavage stood at 0.26. The value for G8A A21G U72A was 0.14; that for G8A C37A C39A A56G was 0.06.

Take G8A G19C G61A: the self-cleavage was found to be 0.16. As for G8A C29G U67G U74A, the self-cleavage came out at 0.1.

On to G8A A28U C32A U54A U72C, for which the self-cleavage was 0.07. With G8A A21G U51A, the self-cleavage came out at 0.34. In the case of G8A C23U C62A U80C, the self-cleavage was 0.07. Consider G8A C37G A45G U80C, for which the self-cleavage was determined as 0.06. The value for G8C G22U U48C G61A was 0.05; that for G8U A13U A21G U41C U54A was 0.05. For the variant G8C A18U G19C A20G U31C U67C U69A, the self-cleavage is 0.23. The value for G8U A15C A56G U80G was 0.14; that for G8C A13G U58A was 0.24. G8A C14U C38G C40A A57G U58C: the self-cleavage turned out to be 0.03. G8A U48A U54A U69A U76A: the self-cleavage was 0.05. For G8A A21G U51C U67C U78A, the self-cleavage was found to be 0. For G8A A35G G42A U69G U72C, the self-cleavage is 0.07. G8A U41C A64U U67C: the self-cleavage came out at 0.06.

In the case of G8C A15G U54C, the self-cleavage amounted to 0.27. As to G8A A47G U49A G52A U54G U67C C79A, the self-cleavage stood at 0.04.

Consider G8A C23U U26C G42A U72G U78A, for which the self-cleavage was found to be 0.03. Regarding G8A C37U U49C A77U, the self-cleavage turned out to be 0.05. Consider G8A U25C C29U U49C A56G U80C, for which the self-cleavage amounted to 0.06. Regarding G8C A45G A75G, the self-cleavage amounted to 0.06. For G8A A47G U67A, the self-cleavage stood at 0.07. With G8A U60A U67C U72A the figure was 0.1; with G8A U26A C29U G33A A64U U67C, 0.05. The value for G8A U48C A65G U72C U80C was 0.15; that for G8A U60C U80A was 0.47; that for G8A G24A U41C A56U U69C was 0.07. With G8A G10U A15U G16C U31C A65G, the self-cleavage was found to be 0.13.

Take G8A U25A U41C U54C U69C U78A: the self-cleavage is 0.05.

Regarding G8C U58C U72C, the self-cleavage turned out to be 0.06. Regarding G8A U41A C62A U72C, the self-cleavage stood at 0.06. For G8A U26C U60C, the self-cleavage stood at 0.09. As for G8U A15G G30A G33A U43A U66C, the self-cleavage was found to be 0.08. Regarding G8U A13U U72C, the self-cleavage is 0.08. With G8A U43C A75U the figure was 0.18; with G8A U43C A75G, 0.12; with G8C A45G A47G U74C, 0.26.

In the case of G8C A20G U26C U41A G42C U54A U72A, the self-cleavage was found to be 0.04. Take G8C C38U U58C: the self-cleavage was 0.22. For G8A A28U C34U U49C U60A G63A, the self-cleavage stood at 0.09.

As to G8C U25C U51G A77G, the self-cleavage amounted to 0.05. Take G8A G10A A20G A21G C23A U41C U54C: the self-cleavage was determined as 0.08. Turning to G8A G10A U25C U31C U54C U80A, the self-cleavage stood at 0.04. For G8A A57G U58C, the self-cleavage amounted to 0.3. With G8C C29U U41C U54G A56U U67C, the self-cleavage stood at 0.11. Regarding G8C A13C A21G U31A, the self-cleavage came out at 0.06. Consider G8C U72C A77U, for which the self-cleavage came out at 0.1. As for G8A A35U U54C U66C, the self-cleavage turned out to be 0.12. With G8A U69C U74A the figure was 0.07. In the case of G8A C11U U25C C37U U49C U69G A75U, the self-cleavage stood at 0.03.

G8C G33C A35G A45U A56G A57G: the self-cleavage is 0.05. With G8A C39G U66C, the self-cleavage came to 0. Consider G8A U26A G30U U58C, for which the self-cleavage is 0.07. G8U A15C A21U C44G A56G A65U U74G: the self-cleavage was found to be 0.04.

With G8C A20U U48C U80G, the self-cleavage is 0.16. In the case of G8A U48C U72C, the self-cleavage stood at 0.06. For the variant G8A A28G G33U U80A, the self-cleavage amounted to 0.22. With G8A A28G A47G the figure was 0.16; with G8C A56G U58C U72C, 0.15. As to G8A A28U A56U U72C A75G, the self-cleavage was 0.05.

Consider G8A A35U U54C U67C, for which the self-cleavage amounted to 0.06. As to G8C C34U U48C U51A A65G, the self-cleavage came out at 0.05. With G8A A45U U60C, the self-cleavage is 0.15.

Take G8C A47G U48C: the self-cleavage is 0.11. In the case of G8A U31C C62G, the self-cleavage amounted to 0.11. With G8C A18G G19C U43A U69C the figure was 0.06; with G8A C14U G30U U48C, 0.05; with G8A A35G U48C U54C A75U, 0.09. Regarding G8C U26C A45G A56G U60A U72C G73C, the self-cleavage was 0.02.

With G8A U69G U80A, the self-cleavage came to 0.16. For G8A U43C A56G A64U U72C, the self-cleavage turned out to be 0.05. Consider G8U A15U C39U U66G U74C, for which the self-cleavage was found to be 0.09. On to G8A A28G U48C A56U U78C, for which the self-cleavage was 0.06. On to G8A U54A C62G U66A U72G U80C, for which the self-cleavage was 0.04. In the case of G8A U49C U78C, the self-cleavage was 0.09.

Turning to G8U A13G A18U C38A U49A, the self-cleavage amounted to 0.24. Consider G8A U25C A28U, for which the self-cleavage amounted to 0.04. With G8C A13G A35G A45U A47U U58C G63U, the self-cleavage worked out at 0.07. For G8A C11U U41C U49A, the self-cleavage came to 0.22. Consider G8A G22A U41A U67A, for which the self-cleavage stood at 0.05.

As for G8A U25C U41C U48C C62U A77U, the self-cleavage was determined as 0.11. On to G8A C59A G73C, for which the self-cleavage is 0.06. Consider G8A A21G U78C, for which the self-cleavage was 0.06. Consider G8A C23G A35U U54C U72G U78C, for which the self-cleavage turned out to be 0.1.

G8A U25C U43A U60A: the self-cleavage stood at 0.06. With G8A U25A U43A C68U A77U the figure was 0.04; with G8A U26C U69G, 0.07; with G8A C23G U25C U48C, 0.05. In the case of G8U A13G U41C U51A, the self-cleavage amounted to 0.24. For the variant G8A U31A U41A U69G, the self-cleavage turned out to be 0.05.

G8A U31G C38U A45U U78A: the self-cleavage came out at 0.04. With G8C A15G U25A C37A U60C U67C U74C the figure was 0.12; with G8A G33U U41A A57G, 0.05. G8A U31C A47U U67G: the self-cleavage came to 0.09.

Take G8A C34A A65G U72A U80A: the self-cleavage came out at 0.41. Consider G8A U25C U51C, for which the self-cleavage was 0.17. As to G8A C44A U48C, the self-cleavage came to 0.06. G8C U69A U80G: the self-cleavage amounted to 0.27. Take G8A U26A A28G: the self-cleavage amounted to 0.06. As for G8A C39G A75C, the self-cleavage stood at 0.26. With G8C G30C G52U, the self-cleavage turned out to be 0.14. For the variant G8A A28C A45U U51C U72C, the self-cleavage was 0.07.

Take G8A U25C C39U U72C U80G: the self-cleavage is 0.06. On to G8A G22C A35G A45G U60C A65G U69A, for which the self-cleavage amounted to 0.04. On to G8A C39G A64G, for which the self-cleavage amounted to 0.2.

G8A A45U U49C U58C U69A: the self-cleavage came to 0.07. The value for G8U A15G A20G U26C U41C A64G U67C was 0.23; that for G8A U25C G52A U76C A77G was 0.05. Regarding G8A G10A G55C, the self-cleavage worked out at 0.18. G8A U41C U43A U60G: the self-cleavage is 0.09. For the variant G8A U31A C62A A77G U78C, the self-cleavage came to 0.05.

Take G8A C38U A75G U76C: the self-cleavage turned out to be 0.08. With G8A U31C U69C, the self-cleavage was 0.1. Regarding G8A U25C A35G A47G, the self-cleavage is 0.21.

Consider G8A C38A A45U, for which the self-cleavage was 0.17. With G8A U31C U80C, the self-cleavage is 0.13. Take G8A U48A G53C G63U: the self-cleavage was 0.11. Regarding G8A G9U A15G U51C G55U A75G, the self-cleavage was determined as 0.07. As to G8A U25C U74A, the self-cleavage came to 0.36. As to G8A U60A G63A U69C, the self-cleavage was found to be 0.07.

Take G8U A15G A18C U25C U31A: the self-cleavage amounted to 0.35. Consider G8C G9A A18G A57G U69A U72C, for which the self-cleavage came out at 0.07.

For G8A U25C C44A U49C, the self-cleavage was 0.05.

Take G8C A56G U60A: the self-cleavage amounted to 0.07. G8A A56G A64G U72C: the self-cleavage is 0.08. With G8A U51A A65G the figure was 0.13; with G8C A13U C23G, 0.04.

For the variant G8C U26A A57G, the self-cleavage amounted to 0.12. Turning to G8U A13G C17U C32G A45G, the self-cleavage turned out to be 0.06. For G8A U54C A64U U66C A77G, the self-cleavage came out at 0.42. For the variant G8A A21U U31A, the self-cleavage is 0.05. G8A U31C C40U U66C U74C: the self-cleavage was 0.06. The value for G8A C23U U54A U72A was 0.08; that for G8A G16U A57G was 0.05. As to G8U A15U A28G U51C A75U, the self-cleavage stood at 0.05. In the case of G8U A13G C44U A45G U48C, the self-cleavage was 0.06. As for G8A U26A U51A A77G, the self-cleavage came to 0.06. The value for G8C A18G A28G A35G A56G was 0.4. Take G8A G10A A21U U26C A56G A64G: the self-cleavage stood at 0.16. In the case of G8U A13U C29U U41A U67A A77U, the self-cleavage worked out at 0.13. For G8A U31A U41C U76C, the self-cleavage worked out at 0.18.

G8A U60C A64U U69C: the self-cleavage amounted to 0.31. As to G8A U58C C59U A64U U69A U78A U80G, the self-cleavage was 0.03. On to G8A A21G U49C U72C U74C, for which the self-cleavage is 0.05.

As to G8A U69A A75U, the self-cleavage worked out at 0.26.

With G8A U26C C32A U41A G52U, the self-cleavage is 0.37. On to G8C A13U A15C A47G A64U U67C, for which the self-cleavage was 0.06. On to G8A C23A C40A U49C U69C U72A U74C, for which the self-cleavage amounted to 0.02. Take G8U A15G A18G U41A U80C: the self-cleavage was 0.08.

In the case of G8A C14U C27U, the self-cleavage stood at 0.07. Turning to G8A C11G U26A C32G, the self-cleavage worked out at 0.04. G8A A45U U49C U60C A64U U78C: the self-cleavage is 0.03. With G8A G33A G63A U72C, the self-cleavage amounted to 0.06. Regarding G8A C23G U54A A57G, the self-cleavage worked out at 0.05.

In the case of G8A G16U A18U, the self-cleavage amounted to 0.06. For G8A C32G U69A, the self-cleavage is 0.42.

As for G8A A21G U41C U74G U76G, the self-cleavage was determined as 0.04.
